Among the data in publication PMC6212790 are binding signal values, retold here.

This is one part of the list. At the low end of the ranking the order means little.

This assay has as its target T1, GST-Rok (full length) (UniProt O34857).
T1 sequence: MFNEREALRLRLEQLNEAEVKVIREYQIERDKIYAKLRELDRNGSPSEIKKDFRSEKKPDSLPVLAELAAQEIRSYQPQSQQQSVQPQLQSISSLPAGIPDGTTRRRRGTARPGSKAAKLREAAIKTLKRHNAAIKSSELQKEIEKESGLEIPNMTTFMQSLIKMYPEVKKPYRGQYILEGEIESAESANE
The assay is described as follows: protein binding microarray.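 Note: rank score from −0.5 (least bound) to 0.5 (best bound).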 Conditions: Rok is a gene silencer of Bacillus subtilis; high values mean tight binding; most listed sequences are background and not binding sites; double strand, one strand shown.
On to CTCGCGCC, for which the binding signal is -0.266 E-score.
Next, CCATCGGG: -0.214 E-score.
Next, GCAGCCAC: -0.415 E-score.
The figure for CACTCGGG is -0.226 E-score; for AAACTGGG it is -0.236 E-score.
In turn, AATCAGAA gave a binding signal of 0.18 E-score.
The figure for CCGAGGCG is -0.249 E-score; for TGCACACA it is 0.0711 E-score; for CCGCACCA it is -0.082 E-score.
Next, ACAACTCC: -0.137 E-score; CAACTACA: 0.18 E-score; GCTAATCC: -0.108 E-score.
Next, AGACTGGA: -0.123 E-score.
Take GCCAAAGC: the binding signal is -0.357 E-score.
With ATGTCGGG, the binding signal was -0.205 E-score.
The figure for CAGACACC is 0.0269 E-score; for AATTAGGA it is -0.0566 E-score.
The figure for ATTCCTCA is -0.0357 E-score; for CTTACAGA it is 0.0495 E-score.
The figure for CTGGGGAA is -0.162 E-score; for TACGGAGA it is 0.0328 E-score.
Regarding AGAGCATA, the binding signal is -0.179 E-score.
ATGCGGCA came in with a binding signal of 0.0193 E-score.
Next, CATTCAGC: -0.0865 E-score; GGAGCAAC: -0.104 E-score; GCAGAGCA: -0.134 E-score.
The figure for GCGACATA is 0.0389 E-score; for CAGCATGC it is -0.093 E-score.
Take CCCCCCTA: the binding signal was -0.35 E-score.
The figure for ACTTACTG is 0.207 E-score; for CATAGTGA it is 0.0352 E-score.
The figure for ATATAGAT is 0.416 E-score; for AAGTGTTC it is 0.00771 E-score.
The figure for CTAGCAAA is 0.164 E-score.
Turning to ATATTTCG, the binding signal is 0.221 E-score.
Next, GGTGCATA: 0.155 E-score.
With AACACGGC, the binding signal was -0.0341 E-score.
Sequence TAGCAAGA yielded a binding signal of 0.0925 E-score.
The figure for ACGACGCT is -0.158 E-score; for AAGGTCCT it is -0.271 E-score.
In the case of CCGCCCCA, the binding signal was -0.353 E-score.
GTCTATTA returned a binding signal of 0.11 E-score.
Take CTGCATTA: the binding signal worked out at 0.29 E-score.
Next, AGAATTGA: 0.193 E-score; ATGCGCAT: 0.087 E-score.
Next, AGGAACTA: 0.291 E-score.
Next, CGTTCAAA: -0.001 E-score; AGTATACA: 0.271 E-score.
For AGACTGCC, the binding signal is -0.22 E-score.
Next, AGATAGCT: 0.104 E-score; AAACTAAA: 0.324 E-score; ACTAGCAT: 0.182 E-score.
Next, CGCCTTGA: -0.225 E-score; ATGAAAAC: 0.0417 E-score.
GCAAGAAC: the binding signal was -0.0916 E-score.
ATCGTAAA registered a binding signal of 0.169 E-score.
Next, ACTATTAG: 0.244 E-score; GTACGCAC: 0.03 E-score.
Next, AAAGATAC: 0.0513 E-score; CGTCATTA: -0.0222 E-score; CGGGCCTA: -0.309 E-score.
Next, GGAGGTAA: -0.0331 E-score; GCCCTGGA: -0.171 E-score.
As for AAGATTGC, the binding signal is -0.137 E-score.
Next, CGACGCGC: -0.332 E-score; CGAGCTAA: 0.0196 E-score; ATCAGCGC: -0.0134 E-score.
The figure for CATTGTTC is 0.00988 E-score.
As to ACGTTTTG, the binding signal amounted to 0.158 E-score.
In turn, ATCTACAT registered a binding signal of 0.372 E-score.
Next, GCTCACAA: -0.0316 E-score; GCCAACCA: -0.162 E-score; GGACAGCA: 0.029 E-score.
The figure for ATCACAAT is 0.232 E-score.
Next, ACCTAGAT: 0.269 E-score; AAGTTATA: 0.289 E-score.
For the sequence TCAGGACA, the binding signal is -0.136 E-score.
Next, AAAGTATG: 0.239 E-score.
The figure for ATGCCATA is 0.0639 E-score.
Next, TGGTCACA: -0.0402 E-score.
As for GCACACCA, the binding signal is -0.025 E-score.
For the sequence AGGCGTCG, the binding signal is -0.139 E-score.
The figure for GCAAACAA is -0.152 E-score; for AAGGAAAT it is -0.0599 E-score; for ACACAGAC it is -0.123 E-score.
Next, CATACCGC: -0.0931 E-score.
On to CAGGGAAA, for which the binding signal was -0.061 E-score.
The figure for ATCAGGGA is -0.123 E-score.
The figure for ATTATGGA is 0.149 E-score; for TCAAACAA it is 0.0792 E-score.
The figure for GACTGCAA is -0.191 E-score; for AGCCGGCT it is -0.35 E-score; for ACTTAGTG it is 0.138 E-score.
Turning to CGCATTGA, the binding signal was -0.147 E-score.
The figure for GGCTAGGA is -0.193 E-score; for AGCTTGCA it is 0.0118 E-score; for TAGGCTGA it is -0.0568 E-score.
Next, AGTAGGAC: 0.0729 E-score; TCAGGTAA: 0.0671 E-score; AGTACCTC: -0.00964 E-score.
As to ATAGTCTC, the binding signal stood at 0.0365 E-score.
The figure for CTATAAAC is 0.272 E-score; for GTCAGGGA it is -0.289 E-score.
The figure for GAGGTATC is 0.000396 E-score; for AGCTTGAA it is 0.081 E-score; for ACTATAGA it is 0.174 E-score.
Next, CTTCGAAC: -0.166 E-score; CCACCGGG: -0.454 E-score; AGCGAGAG: -0.154 E-score.
AATCAGCG: the binding signal is -0.139 E-score.
As to ACTTTTCC, the binding signal was -0.0636 E-score.
The figure for GCTCGCAC is -0.218 E-score; for AGTGACAA it is 0.0348 E-score.
Take GTCGATCA: the binding signal is -0.188 E-score.
Next, GCCAGTGA: -0.255 E-score; CAAGGACG: -0.202 E-score.
Next, ACTGCCCT: -0.278 E-score; ACACTCTG: -0.0135 E-score; CCTTTTCC: -0.314 E-score.
Next, ACGGCGCG: -0.182 E-score.
In the case of AGTCCGAC, the binding signal is 0.0674 E-score.
Next, CGCCCGCG: -0.365 E-score.
As for CAAGTCCA, the binding signal is -0.0486 E-score.
For CCTGCCAG, the binding signal was -0.24 E-score.
Next, CAAGGTAG: 0.274 E-score.
Next, ACTAATAT: 0.385 E-score.
Next, CTAACGTC: -0.0418 E-score; CCATTGTA: 0.201 E-score; TCTACACA: 0.242 E-score.
Turning to GCGGCGAA, the binding signal is -0.13 E-score.
The figure for TCCGAAGA is -0.00926 E-score; for CAATCGCA it is -4.39e-05 E-score.
The figure for AGCGACAC is 0.0672 E-score; for CAGACGTA it is 0.2 E-score; for GCGATTCC it is -0.0289 E-score.
Next, CCACCCCA: -0.347 E-score; AAAGCTGT: 0.0902 E-score; AGTGGCTC: -0.0667 E-score.
In turn, GGCAAACC yielded a binding signal of 0.0188 E-score.
Next, AACGATGA: -0.054 E-score.
Consider ACGTTGAT, for which the binding signal came out at 0.0705 E-score.
Next, TAGGGTAA: 0.138 E-score.
Next, AAGCTGAG: -0.259 E-score; CCCTAGGC: -0.155 E-score.
Next, TAAAGCTA: 0.259 E-score; AACACAGG: -0.118 E-score.
ATACTAGA: the binding signal is 0.349 E-score.
Next, GGCTAGAC: -0.121 E-score.
Next, ATACGTAG: 0.196 E-score; CTGAGTGC: -0.098 E-score; GTCGAAAA: 0.19 E-score.
Regarding GCGGAAAC, the binding signal was determined as 0.0663 E-score.
For the sequence ATGGTTTC, the binding signal worked out at 0.0467 E-score.
The figure for AGTGGCCC is -0.326 E-score; for CCACCTGC it is -0.311 E-score; for CAATTTAC it is 0.288 E-score.
Next, TACATGAA: 0.0836 E-score; CGTTTTCA: -0.0478 E-score; TCCTAGAA: -0.0823 E-score.
ACGATACT returned a binding signal of 0.174 E-score.
In the case of ATACTCCC, the binding signal was -0.0284 E-score.
Next, GGAAATAC: 0.101 E-score.
Regarding TAGATATA, the binding signal worked out at 0.339 E-score.
Next, GCCGTCAC: -0.188 E-score.
The figure for AAGCTTCG is -0.129 E-score; for ACGGCGTG it is -0.21 E-score.
The figure for GAAGCGGA is -0.236 E-score.
TACTCATA registered a binding signal of 0.192 E-score.
The figure for CCGGCGAG is -0.215 E-score; for CAATATAC it is 0.34 E-score; for ACGGCTAA it is -0.205 E-score.
The figure for CTGGGCAC is -0.242 E-score.
